Test results published in publication PMC11603075 (Communications Biology, 2024).

Legend:
KDM4E [1] = molecular target: T1, KDM4E (Homo sapiens, UniProt B2RXH2); assay: MALDI–TOF MS demethylation/+16 Da assay, KDM4E; assay type: biochemical; settings: 60 min
T1 construct: KDM4E1–337; made in house; host or cells: E. coli
T1 sequence (B2RXH2 1-337): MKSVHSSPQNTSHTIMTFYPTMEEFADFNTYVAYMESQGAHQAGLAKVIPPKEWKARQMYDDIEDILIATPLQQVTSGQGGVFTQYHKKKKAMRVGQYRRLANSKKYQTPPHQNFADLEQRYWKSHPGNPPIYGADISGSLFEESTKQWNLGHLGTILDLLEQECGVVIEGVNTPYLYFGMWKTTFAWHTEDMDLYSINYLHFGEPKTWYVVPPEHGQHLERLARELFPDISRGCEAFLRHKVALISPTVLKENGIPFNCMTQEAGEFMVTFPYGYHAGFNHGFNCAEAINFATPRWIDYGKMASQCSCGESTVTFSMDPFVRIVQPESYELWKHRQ
Excerpt: (§1) Fig. 2 Histone H2a fragments are KDM5 and KDM4 substrates. […] See Supplementary Table 6 and Supplementary Fig. 2 for assay conditions and quantification, respectively. […] 0-minute MS spectrum in black, 60/90-minute spectrum in red.
(§2) MS-based screening assays with peptides and calf thymus histones were as reported; see Supplementary Table 6 for conditions. Time course assays were based on reported procedures. In brief, equal volumes of the enzyme and substrate solutions were combined to initiate the reaction; 10 µL of 2% (v/v) formic acid (HCOOH) in ddH2O or 100% methanol was added to 10 µL of the reaction mixture to quench reactions at different time points. Unless otherwise stated, time course assays were carried out in triplicate. In some cases, LC–MS was used instead of MALDI-TOF MS to avoid a MALDI matrix induced artefact with the hydroxylated product (Supplementary Fig. 16). […]
(§3) Supplementary Figure 2 Histone H2a peptide fragments are substrates of KDM4s and KDM5s.
(§4) 2 for representative corresponding MALDI–TOF MS traces. Bar graphs comparing % product format ion (+16 Da and demethylation) of H2a(1–20)R3me2a by (a) K DM5 A–D (after 90 minutes) and (b) KDM4A–E ( a ft er 60 minutes), analysed by MALDI– TOF MS. n = (a) 2, (b) 3 (independent assays). See Supplementary Table 6 for assay condit ions. See Figure S13 A 1 for a positive control.
(§5) (also on this page, place not known: formation KDM5A–D (after MALDI–TOF conditions. Figure S13A1 KDM4A KDM4B KDM4C KDM4D KDM4E 80% product formation KDM5A KDM5B KDM5C KDM5D % product formation) […]
(§6) [ E nz ym e] [Peptide] [2OG] [Ascorbate] [(NH4)2F e(S O4)2] [TCEP] Buffer pH7.5 Enzyme Cognate substrate (mM) (mM) (mM) (mM) (mM) (mM) [HE PE S]
(§7) Supplementary Table 6 Summary of MS assay conditions for substrate screening. These conditions enabled efficient turnover of established substrates. Reactions were carried out at 37 °C unless otherwise st ated. […]

KDM5D = assay: MALDI–TOF MS demethylation/+16 Da assay, KDM5D; assay type: biochemical, human; settings: 90 min
Excerpt: as §1, §2, §3, §4, §5, §6, §7

KDM4E [2] = molecular target: T1, KDM4E; assay: FDH-coupled demethylation assay, Michaelis–Menten kinetics; assay type: biochemical
Experimental: The RDM activity of KDM4E with H2a(1–20)R3me2a was compared with demethylation of H3(1–21)R2me2a using a formaldehyde dehydrogenase (FDH) assay[23],[24]. KDM4E catalysed demethylation of H2a R3me2a was less efficient than H3 R2me2a by approximately three-fold under the same conditions (kcat/KM 0.89 hr^−1 µM^−1 for H2a(1–20)R3me2a and 2.58 hr^−1 µM^−1 for H3(1–21)R2me2a).
When LC–MS-based assays were used, time course assays were carried out as described; product formation (%) was plotted against time (s) using GraphPad Prism5 version 5.04. The gradient of each reaction was calculated by fitting a line of linear regression to the first-order region. The resultant slope was used to calculate reaction rate in µM hr^−1. The rate versus peptide concentration (µM) was plotted and the KM, kcat, and Vmax values determined by fitting the Michaelis–Menten equation using GraphPad Prism5 version 5.04. When a formaldehyde dehydrogenase coupled (FDH) based enzyme activity assay was used, analyses were carried out as above and as previously detailed; linear regression was fitted to the first order region of a graph of relative fluorescent units (RFU) vs time (s).
Supplementary Figure 3 KDM4E catalysed H2a(1–20) hydroxylation and H3(1–21)R2me2a demethylation. Michaelis–Menten plots monitoring: ( a) hydroxylation of H2a(1–20) measured using LC– MS (R2 value obtained was 0.5 indicating poor goodness of fit, likely due to limited data at low substrate concentrations due to signal:noise limitations), (b) demethylation of H2a(1–20)R3me2a, and (c) demethylation of H3(1–21)R2me2a measured using the FDH-coupled demethylation assay. (d) Kinetic parameters obtained in (a –c). Error bars: SEM, n = 3 assay repeats; each assay replicate has n = 3 independent assays. Conditions: LC–MS assay: 2 µM KDM4E, varied concentrations of peptide, 10 µM (NH4)2Fe(SO4)2, 100 µM sodium L-ascorbate, 200 µM 2OG, and 50 mM HEPES pH 7.5, FDH assay: 2 µM […]
50 mM HEPES pH 7.5, 0.01% Tween, 500 µM β-NAD, 1 µM FDH.
(1 picture or pasted object on this page, not shown here)

Ac - SGR [ me 2a ] GKQ GGKAR AKAKT R SSR [H2a(1–20)R3me2a, H2a(1–20)R3me2a without a biotin tag]
+16 Da mass shift (KDM4E [1]; 2 µM KDM4E, 10 µM peptide, MALDI–TOF MS): A +16 Da mass shift occurs | +16 Da (% product formation) (KDM4E [1]; replicate 1): 46.4339% | demethylation (% product formation) (KDM4E [1]; replicate 1): 80.4205% | +16 Da (% product formation) (KDM4E [1]; replicate 2): 45.4666% | demethylation (% product formation) (KDM4E [1]; replicate 2): 73.9041% | +16 Da (% product formation) (KDM4E [1]; replicate 3): 46.4741% | demethylation (% product formation) (KDM4E [1]; replicate 3): 80.1859% | RDM activity (KDM4E [1]; KDM4E catalytic domain): highest RDM activity | +16 Da (% product formation) (KDM5D; replicate 1): 0% | demethylation (% product formation) (KDM5D; replicate 1): 45.629% | +16 Da (% product formation) (KDM5D; replicate 2): 0% | demethylation (% product formation) (KDM5D; replicate 2): 44.405% | kcat/KM (demethylation) (KDM4E [2]; FDH assay, 2 µM KDM4E, 200 µM 2OG, pH 7.5, n = 3 assay repeats): 247 M⁻¹ s⁻¹ | affinity relative to H3(1–21)R2me2a (fold higher) (KDM4E [2]; from KM): four | kcat/KM relative to KDM substrate H3 K9me3 (fold less) (KDM4E [2]; same FDH assay, H3 K9me3 from ref 7): 39 fold | demethylation efficiency relative to H3 R2me2a (fold less efficient) (KDM4E [2]; same conditions): approximately three
